From the supplement of paper PMC8728848
Only a selection was taken, and the strongest signals are over-represented in it overall.

Tests used:
Test in all cases: glycan array binding signal (z-score within array); higher = stronger binding
Settings in all cases: glycan notation: IUPAC condensed, linker removed
[1] = test system: Neu5Ac(a2-3)Gal(b1-3)GalNAc(b1-3)Gal(a1-4)Gal(b1-4)Glc
How it was run: (§1)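 Glycan array data were curated from 3228 arrays in the Consortium for Functional Glycomics database and kept only where the protein sequence was available. Glycan names were converted to IUPAC-condensed notation, and columns mapping to the same glycan were averaged. The binding signal is a within-array Z-score, averaged across arrays of the same protein sequence at different concentrations or buffers and across linkers. Negative Z-scores can be read as non-binding.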

Man(b1-4)GlcNAc = test system: Man(b1-4)GlcNAc
How it was run: as §1

[2] = test system: Neu5Ac(a2-3)Gal(b1-3)GlcNAc(b1-2)Man(a1-3)[Neu5Ac(a2-3)Gal(b1-3)GlcNAc(b1-2)Man(a1-6)]Man(b1-4)GlcNAc(b1-4)GlcNAc
How it was run: as §1

[3] = test system: Neu5Ac(a2-3)Gal(b1-3)GalNAc
How it was run: as §1

[4] = test system: Man(a1-3)[Man(a1-6)]Man(b1-4)GlcNAc(b1-4)GlcNAc
How it was run: as §1

Man(a1-3)[Man(a1-6)]Man = test system: Man(a1-3)[Man(a1-6)]Man
How it was run: as §1

[5] = test system: Neu5Ac(a2-3)Gal(b1-3)GalNAc(b1-4)[Neu5Ac(a2-3)]Gal(b1-4)Glc
How it was run: as §1

[6] = test system: Neu5Ac(a2-3)Gal(b1-3)GalNAc6S
How it was run: as §1

[7] = test system: Man(a1-3)[Man(a1-6)]Man(b1-4)GlcNAc(b1-4)[Fuc(a1-6)]GlcNAc
How it was run: as §1

[8] = test system: Neu5Ac(a2-3)Gal(b1-3)GalNAc(b1-3)Gal(b1-4)GlcNAc
How it was run: as §1

MBP (Homo sapiens) (chain not printed)
glycan array binding signal (z-score) [1]: -0.124

Gal 3 (Homo sapiens) (chain not printed)
glycan array binding signal (z-score) (Man(b1-4)GlcNAc): -0.255 | glycan array binding signal (z-score) [1]: -0.156

Thrombomodulin Extracellular (Homo sapiens) (chain not printed)
glycan array binding signal (z-score) [1]: -0.592 | glycan array binding signal (z-score) [2]: -0.014

CLEC-2 (Homo sapiens) (chain not printed)
glycan array binding signal (z-score) [3]: 0.075

VWF (Homo sapiens) (chain not printed)
glycan array binding signal (z-score) [4]: -0.243 | glycan array binding signal (z-score) (Man(a1-3)[Man(a1-6)]Man): -0.371

M-Ficolin (Homo sapiens) (chain not printed)
glycan array binding signal (z-score) [5]: 5.74

Collectin K1 (Homo sapiens) (chain not printed)
glycan array binding signal (z-score) (Man(a1-3)[Man(a1-6)]Man): -0.241

M-Ficolin A256V (Homo sapiens) (chain not printed)
glycan array binding signal (z-score) [5]: 6.81 | glycan array binding signal (z-score) [2]: -0.178

M-Ficolin Y271F (Homo sapiens) (chain not printed)
glycan array binding signal (z-score) (Man(a1-3)[Man(a1-6)]Man): 0.354 | glycan array binding signal (z-score) [5]: 3.04 | glycan array binding signal (z-score) [6]: 0.159

FGF2 (chain not printed)
glycan array binding signal (z-score) (Man(a1-3)[Man(a1-6)]Man): -0.476

M-Ficolin G221F (Homo sapiens) (chain not printed)
glycan array binding signal (z-score) [4]: -0.155 | glycan array binding signal (z-score) [5]: 6.38 | glycan array binding signal (z-score) [6]: -0.191

M-Ficolin G221F A256V (Homo sapiens) (chain not printed)
glycan array binding signal (z-score) [5]: 5.03

Siglec-2 (Homo sapiens) (chain not printed)
glycan array binding signal (z-score) [5]: -0.151

Meso764 (Homo sapiens) (chain not printed)
glycan array binding signal (z-score) [7]: -0.905 | glycan array binding signal (z-score) (Man(b1-4)GlcNAc): -0.215 | glycan array binding signal (z-score) [8]: -0.572

Gal 8-short (Homo sapiens) (chain not printed)
glycan array binding signal (z-score) [5]: 1.62

STIM-3 (Mus musculus) (chain not printed)
glycan array binding signal (z-score) [3]: 0.549
